Where “and” joins values, the source holds several entries; their conditions need not be identical. Equal values may be shown once. Hit rate of the full screen: of about 340,000 compounds, about 12,000 (3.5%) were called active. The inconclusive results got no clear call from the source; some entries with a clear call stand among them for comparison. The call rests on the fitted dose curve; in most records, active means well fitted inhibition curve with a large enough effect; inconclusive means small, poorly fitted or top-dose-only effect, or another doubt; inactive means no such curve, though single readings can be large or run the other way. A potency beside an inconclusive call is a rough fit, not a confirmed value.
assay: qHTS Assay for Inhibitors of Hepatitis C Virus (HCV); conditions: Huh7.5.1 HCVcc-Cre (HCVcc is cell-culture hepatitis C virus) infection, luciferase reporter, 44 h; activity change, negative = inhibition: at 41.8 µM (top of the series) unless noted
Procedure, shortened: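 HCVcc-Cre virus at an moi near 0.5 was added right after compound to cells cultured 4 h from seeding (1,000 cells/well). Luciferase activity was determined 44 h later, 15 min after substrate addition at RT.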
On the % scale 0 is the no-effect control and ±100 the full control effect; potency means the concentration at half of the fitted maximal effect; tags describe the fitted curve by direction and shape.

| Compound | Potency | activity change, negative = inhibition |
| --- | --- | --- |
| CCOCCOc1cc(NCc2ccccc2)c2ncn(C(C)C)c2c1 | inconclusive: 11.2 µM [inhibitor, partial curve] | – |
| CCOC(=O)c1cccc(Nc2nc(-c3cccnc3)nc3ccccc23)c1 | inconclusive: 10 µM [inhibitor, partial curve] | – |
| CC(C)[C@H](NC(=O)OCc1ccccc1)C(=O)OCC(=O)N1CCN(c2ccc(F)cc2)CC1 | inconclusive: 10 µM [inhibitor, partial curve] | – |
| CCc1ccc(C(=O)Nc2ccc3nc(C)ccc3c2)cc1 | inconclusive: 3.55 µM [inhibitor, single point] | – |
| Cc1cc2cc(CNC(=S)Nc3ccc(OC(F)F)cc3)ccc2[nH]1 | inconclusive: 11.2 µM [inhibitor, partial curve] | – |
| CSc1ccccc1NC(=O)CN(C)CC(=O)Nc1ccc(S(=O)(=O)N2CCCC2)cc1 | – | inactive: 10.5% |
| O=C(c1nc2ccc(Cl)cn2c1CN1CCCC1)N1CCc2ccccc2C1 | – | inactive: -27.6% |
| Cc1ccc(C)c(NC(=O)COC(=O)c2nc(Cl)ccc2Cl)c1 | – | inactive: 7.78% |
| N#C/C(=C/N1CCOCC1)c1ccccc1 | active: 3.16 µM | – |
| CCCC1=C/C(=C/c2ccc(-c3ccccc3OC)o2)C(=O)O1 | – | inactive: 13.9% |
| COc1ccc(Cc2noc(CN(C)CC3(N4CCOCC4)CCCCC3)n2)cc1OC | inconclusive: 31.6 µM [inhibitor, single point] | – |
| COc1ccc(C(=O)CCS(=O)(=O)c2ccc(C)cc2)cc1OC | inconclusive: 31.6 µM [inhibitor, single point] | – |
| Cc1ccc(Nc2nc(C)cc(C)n2)c(Br)c1 | inconclusive: 11.2 µM [inhibitor, single point] | – |
| CC(=O)Nc1ccc2c(c1)C(N1CC3CCC(CC3)C1)c1ccccc1-2 (stereo not drawn) | inconclusive: 25.1 µM [inhibitor, single point] | – |
| CCOC(=O)CSc1nc2c(sc(=S)n2Cc2ccco2)c(=O)n1-c1ccc(F)cc1 | inconclusive: 10 µM [inhibitor, partial curve, poor fit] | – |
| Brc1cccc(OCCn2ccnc2)c1 | inconclusive: 0.316 µM [inhibitor, full curve, poor fit] | – |
| CN1/C(=C\C(=O)C[n+]2ccc(C(=O)c3ccccc3)cc2)C(C)(C)c2ccccc21 | inconclusive: 1.12 µM [inhibitor, full curve] | – |
| Cc1cc(C(=O)CSc2nc(N)cc(N)n2)c(C)n1C1CC1 | – | inactive: 15.8% |
| CC(=O)c1nnn(-c2ccc(F)cc2F)c1C | – | inactive: 9.35% |
| C(=N\Nc1nc(N2CCCC2)nc(N2CCCC2)n1)/c1ccncc1 | inconclusive: 6.31 µM [inhibitor, partial curve] | – |
| CCOc1ccc(C2C(C(=O)OC)=CN(C(C)c3ccccc3)C=C2C(=O)OC)cc1 (stereo not drawn) | inconclusive: 22.4 µM [inhibitor, single point] | – |
| CCN(CC)S(=O)(=O)c1ccc2oc(C(=O)N3CCc4ccccc4C3)c(C)c2c1 | – | inactive: -23% |

| Compound | Potency | activity change, negative = inhibition |
| --- | --- | --- |
| COc1ccc(-c2c(C#Cc3ccsc3)c3cc(-c4cccc5[nH]ccc45)ccc3n2C)cc1 | inconclusive: 35.5 µM [inhibitor, single point] | – |
| COc1ccc(NCc2nnc(SCc3ccc(Cl)cc3)n2-c2ccccc2)cc1 | active: 8.91 µM | – |
| O=C(NCCN1CCOCC1)c1c(O)nc2ccccn2c1=O | – | inactive: 21.5% |
| CCCCCN=C(N)N/N=C/c1c[nH]c2ccc(OC)cc12 | inconclusive: 0.562 µM [inhibitor, full curve, poor fit] | – |
| C[C@H](CO)N1C[C@H](C)[C@@H](CN(C)Cc2ccc3c(c2)OCO3)Oc2c(NC(=O)Cc3ccccc3)cccc2C1=O | inconclusive: 22.4 µM [inhibitor, partial curve, poor fit] | – |
| O=[N+]([O-])c1ccc(N2CCN(c3ccccc3O)CC2)c(Cl)c1 | inconclusive: 31.6 µM [inhibitor, single point] | – |
| CCN(CC(=O)Nc1ccc(NC(C)=O)cc1)CC(=O)Nc1ccccc1C(=O)c1ccccc1 | inconclusive: 11.2 µM [inhibitor, partial curve] | – |
| Cc1cc(C)c(C(=O)N2CCCC(N3CCN(c4ccc(F)cc4)CC3)C2)o1 (stereo not drawn) | inconclusive: 7.08 µM [inhibitor, partial curve] | – |
| COc1ccc(-c2ccc(/C=N/NC(=O)c3cccnc3)o2)c([N+](=O)[O-])c1 | inconclusive: 2 µM [inhibitor, partial curve] | – |
| OC(C#CCCN1CCCCC1)(c1ccccc1)C1CCCCC1 (stereo not drawn) | inconclusive: 0.316 µM [inhibitor, full curve, poor fit] | – |
| CC(O)CNc1nc2ccccc2n1CC(=O)NCCc1ccc(Cl)cc1 (stereo not drawn) | inconclusive: 3.16 µM [inhibitor, partial curve] | – |
| CCC(C)(C)NC(=O)CN(C(=O)CCC(=O)Nc1ccccn1)c1ccc(F)c(Cl)c1 | inconclusive: 3.16 µM [inhibitor, single point] | – |
| O=C(c1ccc(-c2cccc(C(F)(F)F)c2)o1)N1CCN(c2ccccc2O)CC1 | inconclusive: 11.2 µM [inhibitor, partial curve, poor fit] | – |
| O=C(CCC1CCCN(C(=O)C2(c3ccccc3)CC2)C1)N1CCN(c2ccccn2)CC1 (stereo not drawn) | inconclusive: 31.6 µM [inhibitor, single point] | – |
| NNC(=O)/C(=N/Nc1ccccc1)S(=O)(=O)c1ccc(Cl)cc1 | active: 10 µM | – |
| COc1ccc(/C=C/c2c(-c3ccccc3OC)sc3ccccc23)cc1OC | inconclusive: 25.1 µM [inhibitor, single point] | – |
| Cc1ccc(C(=O)OCC(=O)Nc2cccc(S(=O)(=O)NC3=NCCCCC3)c2)c(C)c1 | inconclusive: 31.6 µM [inhibitor, single point] | – |
| Cc1ccc(NC(=O)c2cccc(-n3cnnn3)c2)cc1Cl | – | inactive: -23.4% |
| Cc1cccc(NC(=O)CSc2nc3ccccc3c(=O)n2C)c1 | active: 10 µM | – |
| Cc1noc(C)c1C(=O)NCc1ccco1 | – | inactive: -0.938% |
| Cc1nn2c(-c3cccc(NC(=O)c4ccco4)c3)nnc2c2ccccc12 | inconclusive: 11.2 µM [inhibitor, partial curve] and inconclusive: 28.2 µM [inhibitor, single point] | – |

From PubChem BioAssay AID651820 (National Center for Advancing Translational Sciences (NCATS), 2012)
